In the BET-seq Pho4 binding data (Le et al. 2018):
Some of the results follow. These are noisy estimates, calculated here from bound and input reads.

What follows are sequences tested against T1, Pho4 (S. cerevisiae) (UniProt P07270) (assay: relative binding free energy (BET-seq); higher = weaker binding). Conditions: reference: library average.
T1 sequence: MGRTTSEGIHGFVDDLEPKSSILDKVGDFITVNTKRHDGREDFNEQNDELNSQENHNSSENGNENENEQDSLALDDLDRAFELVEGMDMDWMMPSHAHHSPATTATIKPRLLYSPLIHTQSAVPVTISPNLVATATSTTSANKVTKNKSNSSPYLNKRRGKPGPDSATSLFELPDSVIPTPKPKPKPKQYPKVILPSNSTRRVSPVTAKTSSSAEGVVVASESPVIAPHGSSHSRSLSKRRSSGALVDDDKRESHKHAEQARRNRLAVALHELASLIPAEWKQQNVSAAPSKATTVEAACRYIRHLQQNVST
CGTCTCACGTGAGGGG was tested, and the “relative binding free energy” value was 0.27 kcal/mol.
With GGTAACACGTGAAGAG the “relative binding free energy” value was 0.25 kcal/mol.
GGTGTCACGTGGGGCC was tested, and the “relative binding free energy” value was -0.04 kcal/mol.
TGGTCCACGTGGTTGC was tested, and the “relative binding free energy” value was -0.12 kcal/mol.
For TGTTGCACGTGTGCGT, the “relative binding free energy” value was -0.08 kcal/mol.
TAGTGCACGTGTGGTA was tested, and the “relative binding free energy” value was -0.05 kcal/mol.
With ACTTGCACGTGAGGTT the “relative binding free energy” value was 0.26 kcal/mol.
TCTGGCACGTGGGGCT was tested, and the “relative binding free energy” value was -0.32 kcal/mol.
GTGAACACGTGGGGCG was tested, and the “relative binding free energy” value was -0.06 kcal/mol.
GAGAGCACGTGTAGTT was tested, and the “relative binding free energy” value was -0.1 kcal/mol.
GCGAGCACGTGGTTTT was tested, and the “relative binding free energy” value was -0.07 kcal/mol.
In the case of ATGGGCACGTGCGTGT, the “relative binding free energy” value is reported as -0.15 kcal/mol.
With GGGGGCACGTGTCCGT the “relative binding free energy” value was -0.24 kcal/mol.
In the case of CGTCGCACGTGGCGGG, the “relative binding free energy” value is reported as -0.38 kcal/mol.
For ATGTTCACGTGAAGGA, the “relative binding free energy” value was 0.48 kcal/mol.
With TAGAGCACGTGAGAGT the “relative binding free energy” value was 0.18 kcal/mol.
For GGGGTCACGTGGCATT, the “relative binding free energy” value was 0.1 kcal/mol.
With GGGGGCACGTGCAGAA the “relative binding free energy” value was -0.17 kcal/mol.
In the case of GTGGACACGTGTAGTT, the “relative binding free energy” value is reported as 0.14 kcal/mol.
In the case of AATGCCACGTGGTGAG, the “relative binding free energy” value is reported as -0.17 kcal/mol.
In the case of TTCTACACGTGATAGG, the “relative binding free energy” value is reported as 0.24 kcal/mol.
TTTAACACGTGGGTAC was tested, and the “relative binding free energy” value was -0.06 kcal/mol.
In the case of GGTGCCACGTGTTAGG, the “relative binding free energy” value is reported as 0.03 kcal/mol.
With TGGTTCACGTGGGACC the “relative binding free energy” value was 0.14 kcal/mol.
TTGTTCACGTGAATTC was tested, and the “relative binding free energy” value was 0.34 kcal/mol.
With TAGGTCACGTGTGTTG the “relative binding free energy” value was 0.16 kcal/mol.
For AAAGACACGTGTAGTT, the “relative binding free energy” value was 0.08 kcal/mol.
TGGAGCACGTGTGTAG was tested, and the “relative binding free energy” value was -0.04 kcal/mol.
In the case of CGTGTCACGTGTGTTG, the “relative binding free energy” value is reported as 0.06 kcal/mol.
In the case of TGAGTCACGTGTATAT, the “relative binding free energy” value is reported as 0.12 kcal/mol.
For CGGGACACGTGGTTTG, the “relative binding free energy” value was -0.09 kcal/mol.
In the case of TATGTCACGTGCGTCG, the “relative binding free energy” value is reported as -0.04 kcal/mol.
AGGAGCACGTGGGTGT was tested, and the “relative binding free energy” value was -0.27 kcal/mol.
TGGAACACGTGGTTGG was tested, and the “relative binding free energy” value was -0.04 kcal/mol.
With AGGTACACGTGTAGAG the “relative binding free energy” value was 0.24 kcal/mol.
For GGGTTCACGTGCTTTA, the “relative binding free energy” value was 0.21 kcal/mol.
For AGTCGCACGTGGGTCT, the “relative binding free energy” value was -0.17 kcal/mol.
With CTTCGCACGTGTTGTG the “relative binding free energy” value was -0.06 kcal/mol.
ATGGACACGTGGGTTA was tested, and the “relative binding free energy” value was -0.14 kcal/mol.
In the case of GATAACACGTGTAGTA, the “relative binding free energy” value is reported as 0.18 kcal/mol.
For TGGTGCACGTGGGGTA, the “relative binding free energy” value was -0.18 kcal/mol.
With TTGTACACGTGGCGTC the “relative binding free energy” value was -0.02 kcal/mol.
In the case of TGAGACACGTGAATGG, the “relative binding free energy” value is reported as 0.33 kcal/mol.
In the case of GAGGTCACGTGAAGTG, the “relative binding free energy” value is reported as 0.28 kcal/mol.
With ACGTGCACGTGGTTTT the “relative binding free energy” value was -0.07 kcal/mol.
With TTGGACACGTGCAGCG the “relative binding free energy” value was 0.03 kcal/mol.
In the case of TTTCGCACGTGCATTT, the “relative binding free energy” value is reported as 0.03 kcal/mol.
With ATTTTCACGTGTTGGT the “relative binding free energy” value was 0.32 kcal/mol.
TGTGGCACGTGAGAAG was tested, and the “relative binding free energy” value was 0.18 kcal/mol.
With TTTAACACGTGTTAAG the “relative binding free energy” value was 0.16 kcal/mol.
In the case of TTCTACACGTGGTTAT, the “relative binding free energy” value is reported as 0.03 kcal/mol.
In the case of CGTATCACGTGGATGT, the “relative binding free energy” value is reported as 0.06 kcal/mol.
For TGCTGCACGTGCGGGA, the “relative binding free energy” value was -0.11 kcal/mol.
In the case of AGGTTCACGTGCTTGG, the “relative binding free energy” value is reported as 0.2 kcal/mol.
For GTATTCACGTGACAGG, the “relative binding free energy” value was 0.33 kcal/mol.
With GCTTGCACGTGGCGGT the “relative binding free energy” value was -0.05 kcal/mol.
For GATGACACGTGTTCGT, the “relative binding free energy” value was 0.14 kcal/mol.
TGGGGCACGTGTATGT was tested, and the “relative binding free energy” value was -0.03 kcal/mol.
TATGTCACGTGTTTCG was tested, and the “relative binding free energy” value was 0.1 kcal/mol.
With TTTATCACGTGCAGTG the “relative binding free energy” value was 0.16 kcal/mol.
With AGTTGCACGTGACTTT the “relative binding free energy” value was 0.19 kcal/mol.
With TTGTACACGTGGGTAG the “relative binding free energy” value was -0.03 kcal/mol.
With AGGGACACGTGTTGTC the “relative binding free energy” value was 0.04 kcal/mol.
For ATGGCCACGTGAAGGG, the “relative binding free energy” value was 0.06 kcal/mol.
With AGAGACACGTGCGAGG the “relative binding free energy” value was 0.11 kcal/mol.
For ATTGTCACGTGTGGCT, the “relative binding free energy” value was 0.06 kcal/mol.
With TGGGGCACGTGGCGGC the “relative binding free energy” value was -0.28 kcal/mol.
In the case of GTATGCACGTGAGTAA, the “relative binding free energy” value is reported as 0.18 kcal/mol.
With TGGGTCACGTGCGTGT the “relative binding free energy” value was 0.07 kcal/mol.
With AGGGGCACGTGGAGTC the “relative binding free energy” value was -0.17 kcal/mol.
TGTGTCACGTGGTATA was tested, and the “relative binding free energy” value was -0.14 kcal/mol.
With TGTAACACGTGTCGGG the “relative binding free energy” value was 0.09 kcal/mol.
In the case of AGTTGCACGTGGGAGA, the “relative binding free energy” value is reported as 0.04 kcal/mol.
In the case of TGTTTCACGTGGCAAA, the “relative binding free energy” value is reported as 0.36 kcal/mol.
For GATGCCACGTGGGGTC, the “relative binding free energy” value was -0.14 kcal/mol.
GGAGGCACGTGGTATT was tested, and the “relative binding free energy” value was 0.03 kcal/mol.
For TATTGCACGTGGGATG, the “relative binding free energy” value was 0.01 kcal/mol.
With GGTGACACGTGCGTGG the “relative binding free energy” value was 0 kcal/mol.
With TGAGGCACGTGTCAAT the “relative binding free energy” value was 0 kcal/mol.
With AGGTGCACGTGGAAAA the “relative binding free energy” value was 0.07 kcal/mol.
AGTTCCACGTGCGTTG was tested, and the “relative binding free energy” value was 0.14 kcal/mol.
With ATTGTCACGTGCAGGC the “relative binding free energy” value was 0.2 kcal/mol.
With TTTGGCACGTGTGGTG the “relative binding free energy” value was 0.02 kcal/mol.
For TTCGACACGTGGGGGC, the “relative binding free energy” value was -0.01 kcal/mol.
For TGAATCACGTGTTGTT, the “relative binding free energy” value was 0.17 kcal/mol.
With TAATGCACGTGACAGG the “relative binding free energy” value was 0.07 kcal/mol.
ATCGGCACGTGGGGGC was tested, and the “relative binding free energy” value was -0.13 kcal/mol.
With GTGGTCACGTGGGTTG the “relative binding free energy” value was 0.11 kcal/mol.
TTAATCACGTGCGGGA was tested, and the “relative binding free energy” value was 0.02 kcal/mol.
GGAGCCACGTGGTAGT was tested, and the “relative binding free energy” value was -0.02 kcal/mol.
TTGGTCACGTGATATC was tested, and the “relative binding free energy” value was 0.14 kcal/mol.
With GGGGACACGTGTATGG the “relative binding free energy” value was 0.06 kcal/mol.
For AGTGTCACGTGCGGAT, the “relative binding free energy” value was 0.02 kcal/mol.
For CGGTTCACGTGTCTGG, the “relative binding free energy” value was 0.28 kcal/mol.
GGGATCACGTGGGACA was tested, and the “relative binding free energy” value was 0.04 kcal/mol.
In the case of GGAGTCACGTGTAGGC, the “relative binding free energy” value is reported as -0.05 kcal/mol.
GAGTCCACGTGTTAGG was tested, and the “relative binding free energy” value was 0.28 kcal/mol.
With GCATGCACGTGTGTAG the “relative binding free energy” value was 0.06 kcal/mol.
For TTGGCCACGTGTAAAG, the “relative binding free energy” value was 0.17 kcal/mol.
GTCTGCACGTGGTTGA was tested, and the “relative binding free energy” value was 0.1 kcal/mol.
In the case of TTGTGCACGTGTTATT, the “relative binding free energy” value is reported as -0.03 kcal/mol.
In the case of CATTTCACGTGCGGGA, the “relative binding free energy” value is reported as 0.3 kcal/mol.
For GGGTACACGTGCATGT, the “relative binding free energy” value was 0.18 kcal/mol.
For CGTATCACGTGAAGTA, the “relative binding free energy” value was 0.49 kcal/mol.
In the case of ATATGCACGTGTCTAT, the “relative binding free energy” value is reported as -0.01 kcal/mol.
In the case of CTGTACACGTGGTTTT, the “relative binding free energy” value is reported as 0.18 kcal/mol.
TTTAACACGTGAAGTT was tested, and the “relative binding free energy” value was 0.28 kcal/mol.
For AAGCGCACGTGCGTTT, the “relative binding free energy” value was -0.04 kcal/mol.
In the case of TATATCACGTGTTGTA, the “relative binding free energy” value is reported as 0.03 kcal/mol.
For TTTTGCACGTGGGATA, the “relative binding free energy” value was -0.06 kcal/mol.
GTTCTCACGTGGGTTG was tested, and the “relative binding free energy” value was 0.16 kcal/mol.
For AACAGCACGTGGGAGG, the “relative binding free energy” value was -0.14 kcal/mol.
For GTGGTCACGTGTAGGC, the “relative binding free energy” value was 0.17 kcal/mol.
GAGTACACGTGTTGAG was tested, and the “relative binding free energy” value was 0.07 kcal/mol.
In the case of TGCGCCACGTGGGAGT, the “relative binding free energy” value is reported as -0.25 kcal/mol.
For TTTCCCACGTGTTGTT, the “relative binding free energy” value was 0.05 kcal/mol.
For GATGTCACGTGGGCAT, the “relative binding free energy” value was -0.03 kcal/mol.
For TATTTCACGTGTGGTG, the “relative binding free energy” value was 0.34 kcal/mol.
AGGGACACGTGGTTCG was tested, and the “relative binding free energy” value was -0.02 kcal/mol.
For GGGGGCACGTGGGAGT, the “relative binding free energy” value was -0.11 kcal/mol.
In the case of AGAGCCACGTGGTGTT, the “relative binding free energy” value is reported as -0.16 kcal/mol.
With TTTTTCACGTGTTTCA the “relative binding free energy” value was 0.39 kcal/mol.
In the case of TCGGTCACGTGGAGGC, the “relative binding free energy” value is reported as 0.21 kcal/mol.
For ATCAGCACGTGTGGTA, the “relative binding free energy” value was -0.04 kcal/mol.
TTGGGCACGTGTAACT was tested, and the “relative binding free energy” value was 0.17 kcal/mol.
With ACGTTCACGTGAGGGT the “relative binding free energy” value was 0.34 kcal/mol.
With TCTTTCACGTGGGCGT the “relative binding free energy” value was 0.17 kcal/mol.
For CGGAGCACGTGTTGTG, the “relative binding free energy” value was -0.01 kcal/mol.
With ATTTCCACGTGAGGGA the “relative binding free energy” value was 0.31 kcal/mol.
In the case of TATGTCACGTGAGTTG, the “relative binding free energy” value is reported as 0.31 kcal/mol.
For GGGTGCACGTGCATTG, the “relative binding free energy” value was 0.08 kcal/mol.
In the case of TCGATCACGTGGGGAG, the “relative binding free energy” value is reported as 0.08 kcal/mol.
For TAAGGCACGTGGGGAC, the “relative binding free energy” value was -0.14 kcal/mol.
TGTTGCACGTGGTATG was tested, and the “relative binding free energy” value was -0.03 kcal/mol.
For GAAGGCACGTGTTTTG, the “relative binding free energy” value was 0 kcal/mol.
TGTTACACGTGGGGAA was tested, and the “relative binding free energy” value was 0.06 kcal/mol.
GGTGCCACGTGGGTTC was tested, and the “relative binding free energy” value was -0.18 kcal/mol.
For TATCCCACGTGGTGTT, the “relative binding free energy” value was -0.11 kcal/mol.
For CTCTGCACGTGTTTTT, the “relative binding free energy” value was 0.02 kcal/mol.
In the case of ATAGTCACGTGTGAGT, the “relative binding free energy” value is reported as 0.21 kcal/mol.
For AGGTACACGTGGGTGC, the “relative binding free energy” value was -0.13 kcal/mol.
In the case of GTCTGCACGTGGCTGT, the “relative binding free energy” value is reported as 0.02 kcal/mol.
GATTACACGTGGGGAT was tested, and the “relative binding free energy” value was 0.01 kcal/mol.
TGGAGCACGTGTCATG was tested, and the “relative binding free energy” value was -0.13 kcal/mol.
In the case of GGGGACACGTGTGATG, the “relative binding free energy” value is reported as 0.06 kcal/mol.
GTTGTCACGTGTGTCC was tested, and the “relative binding free energy” value was 0.22 kcal/mol.
